Source: publication PMC8287954
Entries with a single value are a further part of the results.

Biological target: Hs^1-279-Sp^144-152 chimera•Gemin2 (human | Schizosaccharomyces pombe | not stated) (UniProt Q16637)
Test: SEC-MALS; Superdex 200 10/300 GL, 0.5 ml/min, room temperature (20°C), 50 mM HEPES-NaOH pH 7.5, 250 mM NaCl, 5 mM DTT; self-association of the SMN•G2 unit, (SMN•G2)n

- stoichiometry N (minor dimer species): 2
- stoichiometry N (predominant tetramer-octamer species): 8
Substance: Hs^1-279-Sp^144-152 chimera•Gemin2 (from UniProt Q16637 1-279; Q09808 144-152; O14893 1-280) (complex)
